Data reported in patent publication US20250313626A1 (HARBOUR BIOMED SHANGHAI, published 2025).
Where a chain is given by its changes, count along the chain named. Names may count otherwise. Like-named read-outs stand apart in the source and are kept apart here.

T1: human CD200R1 isoform a on CHOK1 cells (CHOK1/hCD200R1a) (human, UniProt Q8TD46 25-348)
T1 construct: also called CHOK1/CD200R1a
T1 sequence: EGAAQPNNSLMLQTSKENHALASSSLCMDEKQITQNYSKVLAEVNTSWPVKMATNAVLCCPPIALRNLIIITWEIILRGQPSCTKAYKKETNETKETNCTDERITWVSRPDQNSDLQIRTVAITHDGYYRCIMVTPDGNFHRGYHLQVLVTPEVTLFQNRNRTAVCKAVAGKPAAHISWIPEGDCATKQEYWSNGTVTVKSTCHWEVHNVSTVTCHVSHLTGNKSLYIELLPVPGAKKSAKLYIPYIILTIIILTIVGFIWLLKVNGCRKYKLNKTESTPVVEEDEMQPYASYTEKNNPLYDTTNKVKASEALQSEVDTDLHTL

T2: human CD200R1a protein (soluble recombinant) (human, UniProt Q8TD46 29-265)
T2 construct: Soluble protein used in BLI; also called human CD200R1 isoform a; not shown: His tag implied by capture on anti-Penta-HIS biosensors
T2 sequence: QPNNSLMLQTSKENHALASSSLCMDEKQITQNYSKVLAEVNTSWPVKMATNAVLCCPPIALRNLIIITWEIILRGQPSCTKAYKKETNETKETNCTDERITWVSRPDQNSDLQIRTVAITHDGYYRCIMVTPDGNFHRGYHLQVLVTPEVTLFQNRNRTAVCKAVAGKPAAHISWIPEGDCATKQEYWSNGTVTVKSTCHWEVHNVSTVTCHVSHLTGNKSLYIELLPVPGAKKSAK

T3: Cyno CD200R1a-His (Cynomolgus macaques, UniProt Q8TD46 25-265 (human entry))
T3 construct: Soluble protein used in BLI; also called Cynomolgus macaques CD200R1a recombinant protein; not shown: His tag
T3 chain: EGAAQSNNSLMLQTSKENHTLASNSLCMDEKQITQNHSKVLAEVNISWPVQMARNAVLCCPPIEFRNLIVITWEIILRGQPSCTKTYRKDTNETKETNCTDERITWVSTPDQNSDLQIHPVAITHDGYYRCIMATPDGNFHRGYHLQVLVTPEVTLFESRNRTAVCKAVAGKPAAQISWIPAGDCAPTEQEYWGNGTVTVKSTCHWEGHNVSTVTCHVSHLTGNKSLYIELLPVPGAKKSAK

T4: CD200R1a on PathHunter Jurkat CD200R1a signaling cells (Eurofins DiscoverX, 93-1136C19) (human, UniProt Q8TD46 25-348)
T4 sequence: T1 sequence

T5: Cynomolgus macaques CD200R1 isoform a on CHOK1 cells (CHOK1/cynoCD200R1a) (Cynomolgus macaques)
T5 chain: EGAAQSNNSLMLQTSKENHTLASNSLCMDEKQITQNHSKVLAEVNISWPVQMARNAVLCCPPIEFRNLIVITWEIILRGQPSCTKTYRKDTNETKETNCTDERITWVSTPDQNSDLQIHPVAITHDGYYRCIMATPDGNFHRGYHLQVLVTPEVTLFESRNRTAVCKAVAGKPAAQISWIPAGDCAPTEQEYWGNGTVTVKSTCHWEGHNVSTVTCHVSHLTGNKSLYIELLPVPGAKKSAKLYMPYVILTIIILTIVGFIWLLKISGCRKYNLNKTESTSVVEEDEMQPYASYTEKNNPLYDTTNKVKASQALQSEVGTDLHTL

B1: PR005514 (antibody, human IgG1, kappa, L234A L235A)
heavy: QVQLVESGGGVVQPGRSLRLSCAASGFTFSSYGFHWVRQAPGKGLEWLGLIWSDGSNKYYADSVKGRFTISRDNSKNTLYLQMNSLRAEDTAVYYCARDRIVGEGFDYWGQGTLVTVSSASTKGPSVFPLAPSSKSTSGGTAALGCLVKDYFPEPVTVSWNSGALTSGVHTFPAVLQSSGLYSLSSVVTVPSSSLGTQTYICNVNHKPSNTKVDKKVEPKSCDKTHTCPPCPAPEAAGGPSVFLFPPKPKDTLMISRTPEVTCVVVDVSHEDPEVKFNWYVDGVEVHNAKTKPREEQYNSTYRVVSVLTVLHQDWLNGKEYKCKVSNKALGAPIEKTISKAKGQPREPQVYTLPPSREEMTKNQVSLTCLVKGFYPSDIAVEWESNGQPENNYKTTPPVLDSDGSFFLYSKLTVDKSRWQQGNVFSCSVMHEALHNHYTQKSLSLSPGK
light: not shown
notes: also called PR60814
B2: PR006839 (antibody, human IgG1, kappa)
heavy: B1 heavy with G239A, G331P
light: not shown
notes: Fc variant of PR005514: human IgG1 with L234A, L235A, G237A (EU)

Columns and labels:
[1] = target: T1, human CD200R1 isoform a on CHOK1 cells …; experiment: flow cytometry, CHOK1/hCD200R1a cells; table beside the curves, head without unit, x axis Log [Ab] (nM)
Description: (§1) This example is intended to investigate the in vitro binding activity of human anti-CD200R1 monoclonal antibodies to human/Cynomolgus macaques CD200R1a expressed on the surface of cells. The anti-CD200R1 antibodies were produced as described in Example 3.4 and the binding experiments at the cell level were performed using CHOK1/hCD200R1a and CHOK1-cynoCD200R1a.
(§2) Briefly, CHOK1/hCD200R1a cells and CHOK1-cynoCD200R1a cells were digested, and collected, and then were resuspended in PBS containing 2% BSA, respectively. The cell density was adjusted to 1×10⁶ cells/mL. The cells were seeded in a 96-well V-bottom plate (Corning, #3894) at 100 μL/well, followed by the addition of test antibodies and reference antibodies in a series diluted concentration, each at 100 μL/well. The cells were incubated away from light at 4° C. for 1 h. Thereafter, the cells in each well were rinsed twice with 100 μL of pre-cooled PBS containing 2% BSA, and centrifuged at 500 g at 4° C. for 5 min, and then the supernatant was discarded. […] Finally, the cells in each well were resuspended in 200 μL of pre-cooled PBS containing 2% BSA, and the fluorescence signal values were read using a BD CantoII flow cytometer.

[2] = target: T1, human CD200R1 isoform a on CHOK1 cells …; experiment: flow cytometry, CHOK1/hCD200R1a cells; table beside the curves
Description: as §1, §2

[3] = target: T2, human CD200R1a protein (soluble …); experiment: BLI (Octet), antibody captured on anti-human Fc sensor, soluble CD200R1a as analyte, 1:1 fit
Description: (§3) To determine the binding affinities of the anti-CD200R1 antibodies to CD200R1a proteins of various species (mouse, human, Cynomolgus macaques), bio-layer interferometry (BLI) assays were carried out using an Octet® RED96e instrument. Antibodies were produced as described in Example 3.4 and diluted to 5 μg/mL using freshly prepared 1× kinetic buffer (10× kinetic buffer (Catalog #18-1105, ForteBio) was diluted with PBS(Catalog #E607016-0500, BBI Life Sciences)) and were captured on the surface of anti-human Fc (AHC) Octet biosensors (Catalog #18-5060, ForteBio) to reach capture levels between 0.9-1.2 nm. The biosensors having the captured anti-CD200R1 antibodies were then dipped in wells containing 2-fold serial dilutions of CD200R1a proteins to detect association signals, followed by dissociation steps in wells containing 1× kinetic buffer. The sensorgrams were recorded and the reference signals were subtracted before curve fitting using ForteBio Data Analysis 11.0 software. Association rates (kₒₙ) and dissociation rates (koff) were calculated using a simple one-to-one Langmuir binding model. The equilibrium dissociation constant (KD) was calculated as the ratio of koff/kₒₙ.

Cyno CD200R1a-His = target: T3, Cyno CD200R1a-His; experiment: as above
Description: as §3

[4] = target: T1, human CD200R1 isoform a on CHOK1 cells …; experiment: flow cytometry, CHOK1/hCD200R1a cells (FITC-Mean); table beside the curves, head without unit, x axis Log [Ab] (nM)
[5] = target: T1, human CD200R1 isoform a on CHOK1 cells …; experiment: flow cytometry blocking assay: biotin-labelled human CD200 binding to CHOK1/hCD200R1a cells; y axis Inhibition %
Description: (§4) In brief, CHOK1/hCD200R1a cells were digested and resuspended in 2% BSA in PBS. […] The cells were placed at 4° C. and incubated for 1 hour in the dark. […] 100 μL/well of pre-cooled PBS containing 2% BSA was added to rinse the cells twice, centrifugation was performed at 500 g, 4° C. for 5 minutes, and the supernatant was discarded. Fluorescent secondary antibody (PE Streptavidin, BD, Cat #: 554061, 1:200) was added at 100 μL/well, and incubation was performed at 4° C. for 30 minutes in the dark. The cells were washed twice with 200 μL/well of pre-cooled PBS, and were centrifuged at 500 g, 4° C. for 5 minutes, and the supernatant was discarded. Finally, 200 μL/well of pre-cooled PBS was used to resuspend the cells, and the fluorescence signal values were read using ACEA Novocyte 3000 flow cytometer. IC50 values were calculated.

[6] = target: T1, human CD200R1 isoform a on CHOK1 cells …; experiment: flow cytometry blocking assay: antibody titrated against biotin-labelled human CD200 binding to CHOK1/hCD200R1a cells
Description: To study the activity of human anti-CD200R1 antibodies in blocking the binding of human CD200 to its receptor CD200R1a in vitro, CHOK1/hCD200R1a was used to perform cell-level human CD200/human CD200R1a binding and blocking experiments.
as §4

[7] = target: T1, human CD200R1 isoform a on CHOK1 cells …; experiment: flow cytometry blocking assay: antibody titrated against biotin-labelled human CD200 binding to CHOK1/hCD200R1a cells; head prints EC50 without unit, x axis Log [Ab] (nM), y axis Inhibition %
Description: as §4

[8] = target: T1, human CD200R1 isoform a on CHOK1 cells …; experiment: flow cytometry, CHOK1/hCD200R1a cells (FITC-Mean); table beside the curves
Description: as §1, §2

[9] = target: T4, CD200R1a on PathHunter Jurkat CD200R1a …; experiment: cell-based or functional assay
[10] = target: T4, CD200R1a on PathHunter Jurkat CD200R1a …; experiment: cell-based or functional assay; remark: listed apart in the source
[11] = target: T5, Cynomolgus macaques CD200R1 isoform a …; experiment: flow cytometry, CHOK1/cynoCD200R1a cells (APC-A Mean); table beside the curves

Row | EC50 [11] [nM] | MFI (MAX) [11] | Binder | EC50 [1] [nM] | MFI(Max) [2] | Kd [3] [nM] | koff [3] [s⁻¹] | kon [3] [M⁻¹ s⁻¹] | Kd (Cyno CD200R1a-His) [nM] | koff (Cyno CD200R1a-His) [s⁻¹] | kon (Cyno CD200R1a-His) [M⁻¹ s⁻¹] | EC50 [4] [nM] | Blocking(Max) [5] [%] | Blocking (Max %) [6] [%] | IC50 [6] [nM] | EC50 [7] [nM] | MFI(Max) [8] | IC50 of the inhibition of CD200-induced PathHunter Jurkat CD200R1a luminescence (CHOK1/hCD200 cells as CD200 source) [9] [nM] | IC50 of the inhibition of CD200-induced PathHunter Jurkat CD200R1a luminescence (CHOK1/hCD200 cells as CD200 source) [10] [nM]
1 | – | – | B1 | 4.32 | 78600 | 5.83 | 0.000316 | 54200 | 272 | 0.0609 | 224000 | 0.311 | 101 | 103 | 0.419 | 0.471 | 19300 | – | –
2 | 2.74 | 35700 | B2 | – | – | – | – | – | – | – | – | 0.374 | 100 | – | – | 0.594 | 19700 | 2 | 2.13
